In all, about 340,000 compounds went through this assay and about 6,900 (2%) were called active. Cut-off read from the data, not from the text of the source: active = inhibition above about 30%; inactive = below that, where a call was filed. This is a selection; strong and weak results do not stand in their true shares. The source gives no active or inactive call for entries shown without one.
target: D(2) dopamine receptor (Homo sapiens) (UniProt P14416); experiment: HTS Assay for Allosteric Antagonists of the Human D2 Dopamine Receptor: Primary Screen for Antagonists; conditions: HEK293 TREx D2 cells, calcium flux, dopamine EC80; at 10 µM; stronger effect = higher value; note: 0% is about no effect
Summary of the method: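 Compounds are added to dye-loaded, induced HEK293 T-REx cells coupled to calcium release via D2; after a 3 min kinetic read an EC80 dopamine stimulus is given and fluorescence is recorded for 3 more min.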

UniProt P14416, sequence (P14416 whole entry, looked up): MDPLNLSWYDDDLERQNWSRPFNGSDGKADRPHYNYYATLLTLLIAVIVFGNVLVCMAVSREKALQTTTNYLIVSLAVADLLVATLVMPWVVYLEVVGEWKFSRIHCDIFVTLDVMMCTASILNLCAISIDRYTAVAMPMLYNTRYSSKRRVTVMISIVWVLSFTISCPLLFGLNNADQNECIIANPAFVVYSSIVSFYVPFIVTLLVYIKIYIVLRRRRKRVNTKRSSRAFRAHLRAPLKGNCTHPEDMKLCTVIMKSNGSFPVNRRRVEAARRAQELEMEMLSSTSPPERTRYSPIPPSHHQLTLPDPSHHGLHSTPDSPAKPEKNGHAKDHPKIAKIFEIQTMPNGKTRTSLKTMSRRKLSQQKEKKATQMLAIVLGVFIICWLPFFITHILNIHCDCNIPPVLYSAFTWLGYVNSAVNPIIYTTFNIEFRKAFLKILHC

Compound	inhibition
CCCNC(=O)Cn1nc(C)c2c(C)n(-c3ccccc3)nc2c1=O	-19.4%
CC1=C(C(=O)Nc2cccnc2)C(c2ccc(F)cc2)n2nc(SCc3ccccc3)nc2N1 (configuration not stated)	2.42%
CC1CCN(S(=O)(=O)c2cccc(C(=O)N(C)C3(C)CCS(=O)(=O)C3)c2)CC1 (configuration not stated)	-20.3%
COc1cc(OC)c(NC(=O)CSc2nc3ccncc3[nH]2)cc1Cl	13.6%
CC(NC(=O)C1CCN(C(=O)N2CCOc3ccccc32)CC1)c1ccccc1 (configuration not stated)	24.1%
COc1cc(C2Oc3nc(SC)nnc3-c3ccccc3N2C(C)=O)cc(Cl)c1OC (configuration not stated)	-11.5%
Cc1cc(Br)ccc1NC(=O)c1sc2ncn(Cc3ccccc3Cl)c(=O)c2c1C	-10.2%
Cc1ccc(-n2ncc3c(NCc4ccccc4)ncnc32)cc1C	0.516%
O=C(CSc1oc(-c2ccco2)nc1S(=O)(=O)c1ccc(Br)cc1)c1ccc(Cl)cc1	5.99%
CCc1cc2c(cc3c(=O)n(CC(=O)NCCCN4CCCCCC4)nc(CC)n32)s1	active: 32.6%
COc1ccc(C(=O)N2CCN(S(=O)(=O)c3ccc(F)cc3)CC2)cc1OC	active: 39.1%
COC(=O)C1CCN(c2csc3ccc(C)cc3c2=O)CC1	4.4%
Cc1ccc(C)c(NC(=O)CN(Cc2ccccc2)S(=O)(=O)c2ccc3nc(C)sc3c2)c1	21%
CCN(CC)c1ccc(-c2nc(-c3ccccn3)no2)cc1[N+](=O)[O-]	-3.85%
CN1c2ccccc2-c2nc(SCC(=O)Nc3ccccc3)ncc2S1(=O)=O	-9.92%
CSc1cccc(NC(=O)c2ccc3c(c2)CCCN3S(C)(=O)=O)c1	0.244%
Cc1ccc(S(=O)(=O)Nc2ccc3c(c2)nc(CCN2CCCC2)n3C)cc1	active: 39.5%
COc1ccc(NC(=O)c2ccc3[nH]c(C)cc(=O)c3c2)cc1	12.3%
CCCCCCn1c(/C=C/c2ccccc2)nc2ccccc21	22.1%
Cc1ccc(/C=C/C(=O)Nc2ccc(Cl)cc2Cl)cc1	-14.6%
Cc1ccc(NC(=O)Cc2coc3c(C)c(C)ccc23)c(C)c1	20.5%
Cc1ccc(-n2cc(C(=O)OCc3ccc(Cl)cc3)c3ccccc3c2=O)cc1	-15.9%
CCN1C(=O)c2ccccc2S(=O)(=O)c2ccc(C(=O)NCc3ccc(F)cc3)cc21	8.27%
Cc1ccc(CNC(=O)CN2C(=O)COc3ccc(S(=O)(=O)N4CCC(C)CC4)cc32)cc1	-0.775%
COc1ccc(NC(=O)c2ccc(-c3cccc(Cl)c3C)o2)cc1	-3.74%
COc1ccc(-c2[nH]c(-c3ccccc3)nc2SCC(=O)Nc2ccc3c(c2)OCO3)cc1	-2.91%
CCn1c(CN2CCCCC2)nc2cc(NC(=O)COc3ccc([N+](=O)[O-])cc3)ccc21	-17.5%

From PubChem BioAssay AID485344 (National Center for Advancing Translational Sciences (NCATS), 2010)
